# Measured values taken from the antibiotic and cytotoxicity screens of Wong et al. (2023).
# The other results are listed elsewhere or left out.
# Tested on: HepG2
# Test: cytotoxicity call (relative viability < 0.9)
# Details: 10 µM
row,Structure (SMILES),cytotoxicity call
1,COc1ccc(S(=O)(=O)N(C)C[C@H]2OCCCC[C@@H](C)Oc3ccc(NC(=O)NC4CCCCC4)cc3C(=O)N([C@@H](C)CO)C[C@H]2C)cc1,active
2,CC(=O)O[C@H]1C[C@@H](OC(C)=O)C(C)(C)[C@@H]2CC(=O)[C@]3(C)[C@H](CC[C@@]4(C)[C@H](C(=O)O)OC(=O)[C@H]5O[C@]543)[C@@]12C,inactive
3,C[C@@H]1CN([C@H](C)CO)C(=O)c2cccc(NC(=O)c3cnccn3)c2O[C@@H]1CN(C)Cc1ccncc1,inactive
4,C[C@@H]1CN([C@H](C)CO)C(=O)c2cc(NS(=O)(=O)c3ccc(F)cc3)ccc2O[C@@H](C)CCCCO[C@@H]1CN(C)C(=O)Cc1ccccc1,inactive
5,c1ccc(CCNc2ccnc3cc4ccccc4cc23)cc1,active
6,NC(=O)NCC#Cc1ccc2c(c1)[C@]1(C(=O)N2)[C@H](C(=O)N2CCN(c3ncccn3)CC2)[C@H]2C(=O)O[C@H](c3ccccc3)[C@H](c3ccccc3)N2[C@@H]1c1ccc(OCCO)cc1,inactive
7,Cc1ccc(S(=O)(=O)Nc2ccc3c(c2)C(=O)N([C@H](C)CO)C[C@@H](C)[C@@H](CN(C)CC2CCCCC2)OCCCC[C@@H](C)O3)cc1,active
8,COc1cccc(-c2ccc3c(c2)O[C@H](CN(C)C(=O)C2CCOCC2)[C@H](C)CN([C@@H](C)CO)S3(=O)=O)c1,inactive

# Tested on: S. aureus RN4220
# Test: growth inhibition call (relative growth <= 0.2)
# Details: 50 µM
row,Structure (SMILES),growth inhibition call
1,NC1CCN(C(=O)c2c[nH]c3ccccc23)CC1,inactive
2,Cc1cccc(Nc2ccccc2C(=O)O)c1C,inactive
3,COc1ccccc1-c1ccc2c(c1)O[C@H](CN(C)CC1CCOCC1)[C@@H](C)CN([C@@H](C)CO)S2(=O)=O,inactive
4,C[C@H](CO)N1C[C@H](C)[C@@H](CN(C)S(C)(=O)=O)Oc2ccc(NS(C)(=O)=O)cc2C1=O,inactive
5,C[C@@H]1CN([C@@H](C)CO)S(=O)(=O)c2ccc(C#CC3CCCC3)cc2O[C@H]1CN(C)C(=O)Cc1ccncc1,inactive
6,Cn1cnc(CCNC(=O)C[C@@H]2CC[C@@H]3[C@H](COC[C@H](O)CN3C(=O)C3CC3)O2)c1,inactive
7,CC(C)NC(=O)Nc1ccc2c(c1)CC(=O)N([C@H](C)CO)C[C@H](C)[C@@H](CN(C)S(=O)(=O)c1ccc(F)cc1)O2,inactive
8,COc1ccccc1C(=O)Nc1ccc2c(c1)C(=O)N(C)[C@H]1CC[C@@H](CC(=O)NCCc3ccncc3)O[C@@H]1CO2,inactive
9,NCCCCC(=O)O,inactive
10,O=C1/C(=C/C=C/c2ccco2)CCC/C1=C\C=C\c1ccco1,inactive
11,Cc1noc(C)c1S(=O)(=O)Nc1ccc2c(c1)C(=O)N([C@@H](C)CO)C[C@H](C)[C@H](CN(C)C(=O)Nc1ccccc1)O2,inactive
12,O=C(C[C@H]1C[C@@H]2c3cc(NS(=O)(=O)c4ccc(F)cc4)ccc3O[C@@H]2[C@@H](CO)O1)NC1CCCCC1,inactive
13,C[C@H](CO)N1C[C@H](C)[C@@H](CN(C)C(=O)CCC(F)(F)F)OCCCC[C@H](C)Oc2ccc(NC(=O)Cc3ccccc3)cc2C1=O,inactive
14,CNC[C@H]1OCCCC[C@H](C)Oc2ccc(NS(=O)(=O)c3c(C)noc3C)cc2C(=O)N([C@H](C)CO)C[C@H]1C,inactive
15,C[C@H](CO)N1C[C@H](C)[C@H](CN(C)Cc2ccc(Oc3ccccc3)cc2)Oc2c(NS(=O)(=O)c3ccc(Cl)cc3)cccc2C1=O,inactive
16,Cc1noc(C)c1NC(=O)Nc1ccc2c(c1)C(=O)N([C@@H](C)CO)C[C@@H](C)[C@H](CN(C)C(=O)Nc1cccc3ccccc13)OCCCC[C@@H](C)O2,inactive
17,O=C(Nc1ccc2c(c1)[C@H]1C[C@@H](CC(=O)N3CCc4ccccc4C3)O[C@@H](CO)[C@H]1O2)C1CCOCC1,inactive
18,N#CCC(=O)NN,inactive
19,[O-][NH2+]N1CCCCCCC1,inactive
20,Cc1ccc(S(=O)(=O)N(C)C[C@@H]2Oc3ccc(NS(C)(=O)=O)cc3C(=O)N([C@H](C)CO)C[C@H]2C)cc1,inactive

row,Structure (SMILES),growth inhibition call
1,COc1ccc(NC(=O)N(C)C[C@H]2OCc3ccccc3-c3c(n(C)c4ccccc34)C(=O)N([C@@H](C)CO)C[C@H]2C)c(OC)c1,inactive
2,COc1ccc(S(=O)(=O)N[C@@H](CNc2nc(C)nc(N3CCC(c4ccc5c(n4)NCCC5)CC3)c2C)C(=O)O)cc1,inactive
3,C[C@H](CO)N1C[C@H](C)[C@@H](CN(C)S(=O)(=O)c2ccc(F)cc2)OCCCC[C@H](C)Oc2ccc(NC(=O)Nc3ccc(C(F)(F)F)cc3)cc2C1=O,inactive
4,C[C@H]1CCCCO[C@@H](CN(C)Cc2ccc3c(c2)OCO3)[C@@H](C)CN([C@@H](C)CO)C(=O)c2cc(NC(=O)c3ccccc3)ccc2O1,inactive
5,CO[C@@H]1CN(C)C(=O)c2cc(NC(=O)CC(F)(F)F)ccc2OC[C@H](C)N(C(=O)C2CCOCC2)C[C@@H]1C,inactive
6,C[C@@H]1CN([C@H](C)CO)C(=O)c2cc(NC(=O)Nc3ccc(F)cc3)ccc2O[C@@H](C)CCCCO[C@@H]1CN(C)C(=O)C1CCCCC1,inactive
7,C[C@@H]1CN([C@@H](C)CO)C(=O)Cc2cc(NS(=O)(=O)c3cn(C)cn3)ccc2O[C@@H]1CN(C)S(=O)(=O)c1ccc(F)cc1,inactive
8,C[C@@H]1CN([C@@H](C)CO)C(=O)Cc2cc(NC(=O)CCC(F)(F)F)ccc2O[C@@H]1CN(C)Cc1ccc(C(=O)Nc2ccccc2N)cc1,inactive
9,C[C@@H]1CN([C@H](C)CO)C(=O)c2cc(NC(=O)CCC(F)(F)F)ccc2O[C@@H](C)CCCCO[C@H]1CN(C)C(=O)Cc1ccccc1,inactive
10,COCC#Cc1ccc2c(c1)O[C@H](CN(C)Cc1ccc3c(c1)OCO3)[C@H](C)CN([C@H](C)CO)S2(=O)=O,inactive
11,CSc1n[nH]c(=O)c2cc(C)nn12,inactive
12,C[C@@H]1CCCCO[C@H](CN(C)CC2CCCCC2)[C@H](C)CN([C@H](C)CO)C(=O)c2cc(NS(=O)(=O)c3ccccc3)ccc2O1,inactive
13,COc1ccc(S(=O)(=O)N(C)C[C@H]2OCCCC[C@@H](C)Oc3ccc(NC(=O)NC4CCCCC4)cc3C(=O)N([C@@H](C)CO)C[C@H]2C)cc1,inactive
14,CC(=O)O[C@H]1C[C@@H](OC(C)=O)C(C)(C)[C@@H]2CC(=O)[C@]3(C)[C@H](CC[C@@]4(C)[C@H](C(=O)O)OC(=O)[C@H]5O[C@]543)[C@@]12C,inactive
15,C[C@@H]1CN([C@H](C)CO)C(=O)c2cccc(NC(=O)c3cnccn3)c2O[C@@H]1CN(C)Cc1ccncc1,inactive
16,C[C@@H]1CN([C@H](C)CO)C(=O)c2cc(NS(=O)(=O)c3ccc(F)cc3)ccc2O[C@@H](C)CCCCO[C@@H]1CN(C)C(=O)Cc1ccccc1,inactive
17,c1ccc(CCNc2ccnc3cc4ccccc4cc23)cc1,active
18,NC(=O)NCC#Cc1ccc2c(c1)[C@]1(C(=O)N2)[C@H](C(=O)N2CCN(c3ncccn3)CC2)[C@H]2C(=O)O[C@H](c3ccccc3)[C@H](c3ccccc3)N2[C@@H]1c1ccc(OCCO)cc1,inactive
19,Cc1ccc(S(=O)(=O)Nc2ccc3c(c2)C(=O)N([C@H](C)CO)C[C@@H](C)[C@@H](CN(C)CC2CCCCC2)OCCCC[C@@H](C)O3)cc1,inactive
20,COc1cccc(-c2ccc3c(c2)O[C@H](CN(C)C(=O)C2CCOCC2)[C@H](C)CN([C@@H](C)CO)S3(=O)=O)c1,inactive
